# Laboratory results: the antibiotic and cytotoxicity screens of Wong et al. (2023)
# Some of the results follow.
# What was measured:
# HSkMC = human skeletal muscle cells; assay: cytotoxicity call (relative viability < 0.9); settings: 10 µM
# HepG2 = assay: cytotoxicity call (relative viability < 0.9); settings: 10 µM
# S. aureus RN4220 = assay: growth inhibition call (relative growth <= 0.2); settings: 50 µM
Structure (SMILES),cytotoxicity call (HSkMC),cytotoxicity call (HepG2),growth inhibition call (S. aureus RN4220)
O=C(C[C@@H]1CC[C@H]2[C@@H](COC[C@H](O)CN2S(=O)(=O)c2ccc(Cl)cc2)O1)NCCN1CCCC1,inactive,inactive,inactive
COc1ccc(S(=O)(=O)N(C)C[C@H]2OCCCC[C@H](C)Oc3ccc(NC(=O)Nc4cccc5ccccc45)cc3C(=O)N([C@H](C)CO)C[C@H]2C)cc1,inactive,inactive,inactive
C[C@H](CO)N1C[C@H](C)[C@H](CN(C)C(=O)NC2CCCCC2)Oc2c(NS(C)(=O)=O)cccc2C1=O,inactive,inactive,inactive
C[C@H](CO)N1C[C@H](C)[C@H](CN(C)S(=O)(=O)c2ccc(F)cc2)Oc2ccc(NS(C)(=O)=O)cc2C1=O,inactive,inactive,inactive
C[C@@H]1CN([C@@H](C)CO)C(=O)Cc2cc(NC(=O)CCCN(C)C)ccc2O[C@H]1CN(C)S(=O)(=O)c1cccs1,inactive,inactive,inactive
COc1ccc(CN(C)C[C@H]2OCCCC[C@H](C)Oc3ccc(NS(=O)(=O)c4cccs4)cc3C(=O)N([C@H](C)CO)C[C@H]2C)cc1,inactive,inactive,inactive
C[C@H]1CN([C@@H](C)CO)C(=O)c2cc(NS(=O)(=O)c3ccccc3)ccc2O[C@@H]1CN(C)S(C)(=O)=O,inactive,active,inactive
C[C@@H]1CN([C@H](C)CO)C(=O)c2cccc(NC(=O)c3ccc(-c4nccs4)cc3)c2O[C@@H]1CN(C)Cc1ccc(-c2ccccc2)cc1,inactive,inactive,inactive
C[C@@H]1CN([C@@H](C)CO)C(=O)c2cccc(NC(=O)C3CCCCC3)c2O[C@H]1CN(C)Cc1ccc(-c2ccccc2)cc1,inactive,inactive,inactive
C[C@@H]1COCCN1,inactive,inactive,inactive
Cn1cnc(S(=O)(=O)N[C@@H]2C=C[C@H](CC(=O)N3CCN(c4ccccc4)CC3)O[C@@H]2CO)c1,inactive,inactive,inactive
CC(C)NC(=O)N(C)C[C@H]1Oc2ccc(NC(=O)c3ccncc3)cc2CC(=O)N([C@H](C)CO)C[C@@H]1C,inactive,inactive,inactive
COC(=O)c1ccccc1S(=O)(=O)NC(=O)Nc1nc(C)c2c(n1)CCS(=O)(=O)C2,inactive,inactive,inactive
COc1ccc(C=CC(=O)c2ccc(O)cc2O)cc1,inactive,inactive,inactive
COc1cc(N2C[C@@H]3C[C@H](C(=O)NCCN(C)C)N(C)[C@@H]3C2)ncn1,inactive,inactive,inactive
Cc1cc(=O)n2nc(C(=O)O)nc2[nH]1,inactive,inactive,inactive
C[C@@H]1CN([C@@H](C)CO)C(=O)c2cc(NC(=O)c3ccccc3)ccc2O[C@@H](C)CCCCO[C@@H]1CN(C)S(=O)(=O)c1cccs1,inactive,inactive,inactive
Cc1noc(C)c1NC(=O)N(C)C[C@@H]1OCCCC[C@@H](C)Oc2ccc(NC(=O)Nc3ccccc3)cc2C(=O)N([C@@H](C)CO)C[C@@H]1C,inactive,inactive,inactive
COc1ccc(S(=O)(=O)N(C)C[C@H]2Oc3c(NC(=O)c4ccncc4)cccc3C(=O)N([C@H](C)CO)C[C@@H]2C)cc1,inactive,inactive,inactive
Cc1cc(C(=O)Nc2cccc3c2O[C@H](CN(C)Cc2ccc4c(c2)OCO4)[C@H](C)CN([C@@H](C)CO)C3=O)n(C)n1,inactive,inactive,inactive
Fc1cnc(N2C[C@H]3COC[C@@H]3C2)nc1,inactive,inactive,inactive
Cc1noc(C)c1S(=O)(=O)N(C)C[C@H]1OCc2cnnn2CCCC(=O)N([C@H](C)CO)C[C@H]1C,inactive,inactive,inactive
C[C@H](CO)N1C[C@H](C)[C@H](CN(C)Cc2ccc(Cl)c(Cl)c2)OCCCC[C@H](C)Oc2ccc(NS(=O)(=O)c3ccc(F)cc3)cc2C1=O,active,inactive,inactive
O=C(O)C[C@](O)(Cc1ccc(O)cc1)C(=O)O,inactive,inactive,inactive
C[C@@H]1CN([C@@H](C)CO)S(=O)(=O)c2ccc(-c3ccncc3)cc2O[C@H]1CN(C)Cc1ccc(Oc2ccccc2)cc1,inactive,active,inactive
Cc1cc(=S)oc2ccccc12,inactive,inactive,inactive
COc1ccc(NC(=O)N(C)C[C@@H]2Oc3ncc(C#CC(C)C)cc3C(=O)N([C@@H](C)CO)C[C@@H]2C)cc1,inactive,inactive,inactive
